# Over roughly 18,000 sequences, “TetR repression strength (sort-seq, GFP reporter)” has its median near 0.23; the highest 2% begin near 0.68. The list shows a part of the results.
# Biological target: TetR (class B, Tn10) (UniProt P04483)
# Assay: TetR repression strength (sort-seq, GFP reporter) (relative to tetO2 = 1); higher = stronger repression
# Conditions: E. coli
# Summary of the method: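 Repression strength is the top bin index plus one minus the read-weighted mean bin, relative to the unaltered operator's value. A low-copy library in E. coli SIG10-MAX randomized eight operator positions between a constitutive promoter and sfGFP, with TetR expressed constitutively; cells grew 5 h at 37 °C in LB with 50 µg/mL chloramphenicol and 10^6 were FACS-sorted into 13 bins that were each Illumina-sequenced. Three independent transformations were averaged, keeping only members with ≥30 reads in all replicates and CV ≤0.5.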
# UniProt P04483, sequence (P04483 whole entry): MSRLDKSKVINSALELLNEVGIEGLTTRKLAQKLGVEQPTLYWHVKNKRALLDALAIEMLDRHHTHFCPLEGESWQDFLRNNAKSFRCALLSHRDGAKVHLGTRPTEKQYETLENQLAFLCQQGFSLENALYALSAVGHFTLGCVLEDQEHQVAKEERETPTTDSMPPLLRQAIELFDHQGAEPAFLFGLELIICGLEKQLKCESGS
row,Sequence,TetR repression strength
1,TCCCTGGCAGTCTCGGAGA,0.19
2,TCCCCACGAGTGCCAGAGA,0.256
3,TCCCCTAAAGTCGTAGAGA,0.36
4,TCCCGAGAAGTAAGGGAGA,0.16
5,TCCCTCTCAGTCGGTGAGA,0.393
6,TCCCGAAGAGTTGGGGAGA,0.507
7,TCCCGCGAAGTTTAGGAGA,0.221
8,TCCCCAATAGTCGAGGAGA,0
9,TCCCATTGAGTAGGTGAGA,0.186
10,TCCCTCGAAGTGTGAGAGA,0.274
11,TCCCAAAGAGTGTTGGAGA,0.305
12,TCCCTCCTAGTTGTGGAGA,0.3
13,TCCCTTGAAGTATAAGAGA,0.264
14,TCCCGACTAGTCCGCGAGA,0.311
15,TCCCAAGTAGTGTCAGAGA,0.635
16,TCCCTCGCAGTGAGCGAGA,0.22
17,TCCCTGTAAGTGGAAGAGA,0.0201
18,TCCCAATGAGTGAGCGAGA,0.306
19,TCCCAACGAGTTTAGGAGA,0.245
20,TCCCGAGTAGTCGCCGAGA,0.0944
21,TCCCCAGCAGTAGTTGAGA,0.207
22,TCCCATAGAGTTTATGAGA,0.178
23,TCCCACGCAGTCAAAGAGA,0.287
24,TCCCAACTAGTTTTCGAGA,0.378
25,TCCCGCGTAGTCTCAGAGA,0.326
26,TCCCGATAAGTAGACGAGA,0.275

row,Sequence,TetR repression strength
1,TCCCTAATAGTGCGAGAGA,0.309
2,TCCCACGTAGTAGTAGAGA,0.196
3,TCCCGGGGAGTCGCAGAGA,0.253
4,TCCCGCTCAGTTTAGGAGA,0.205
5,TCCCACGAAGTTTGCGAGA,0.265
6,TCCCTGATAGTTGGCGAGA,0.317
7,TCCCAGGTAGTCTGAGAGA,0.196
8,TCCCTGGTAGTGGCGGAGA,0.0597
9,TCCCACCAAGTGTCGGAGA,0.0251
10,TCCCCGGTAGTCAGGGAGA,0.501
11,TCCCCGGAAGTGCGCGAGA,0.362
12,TCCCGCCTAGTGCTTGAGA,0.24
13,TCCCGCACAGTGGAAGAGA,0.259
14,TCCCATCGAGTGTCTGAGA,0.193
15,TCCCCATGAGTGCTAGAGA,0.29
16,TCCCAAGCAGTGCCCGAGA,0.183
17,TCCCGGGCAGTAGATGAGA,0.0336
18,TCCCGGATAGTCAGTGAGA,0.203
19,TCCCGAAAAGTTATGGAGA,0.201
20,TCCCACAGAGTAGTGGAGA,0.166
21,TCCCAGGGAGTGGGCGAGA,0.312
22,TCCCCGTTAGTGTAGGAGA,0.179
23,TCCCGACTAGTGAAGGAGA,0.637
24,TCCCAGATAGTGCATGAGA,0.138
25,TCCCAACGAGTGCCTGAGA,0.0837
26,TCCCTGCAAGTTCCTGAGA,0.272

row,Sequence,TetR repression strength
1,TCCCGCTTAGTTGATGAGA,0.233
2,TCCCAACTAGTGCACGAGA,0.328
3,TCCCCCCTAGTGCACGAGA,0.217
4,TCCCCATAAGTCAGGGAGA,0.0546
5,TCCCGCCGAGTTCATGAGA,0.28
6,TCCCTGGCAGTATACGAGA,0.077
7,TCCCAGTGAGTACCCGAGA,0.261
8,TCCCTCGCAGTCATCGAGA,0.621
9,TCCCGTGGAGTGGGTGAGA,0.181
10,TCCCGAAAAGTGTGCGAGA,0.176
11,TCCCGGGTAGTCGGAGAGA,0.313
12,TCCCCATTAGTAGGGGAGA,0.455
13,TCCCCGAAAGTAGCCGAGA,0.169
14,TCCCCCACAGTGACGGAGA,0.639
15,TCCCTGGAAGTCAGGGAGA,0.236
16,TCCCAGCTAGTTTGGGAGA,0.273
17,TCCCGACGAGTTGGTGAGA,0.199
18,TCCCTCGAAGTGCCTGAGA,0.316
19,TCCCTGACAGTGGTCGAGA,0.148
20,TCCCTGCCAGTGATTGAGA,0.574
21,TCCCTCCTAGTGCACGAGA,0.334
22,TCCCTTAGAGTGCCAGAGA,0.207
23,TCCCGTTCAGTAGAAGAGA,0.141
24,TCCCAGCAAGTGGTAGAGA,0.43
25,TCCCGTTCAGTGTGGGAGA,0.0348
26,TCCCCTCGAGTCGGTGAGA,0.263

row,Sequence,TetR repression strength
1,TCCCGGTCAGTAACGGAGA,0.173
2,TCCCGAGGAGTACGAGAGA,0.222
3,TCCCAGACAGTTCCCGAGA,0.324
4,TCCCCGTAAGTGTTGGAGA,0.176
5,TCCCTGTGAGTACCAGAGA,0.292
6,TCCCCATGAGTACGGGAGA,0.236
7,TCCCTACCAGTATGGGAGA,0.287
8,TCCCGGCTAGTAGGTGAGA,0.259
9,TCCCGGGGAGTGGATGAGA,0.154
10,TCCCGTCGAGTCGTTGAGA,0.134
11,TCCCTATGAGTAACCGAGA,0.179
12,TCCCTTAAAGTACTCGAGA,1.16
13,TCCCTTAAAGTCGGCGAGA,0.202
14,TCCCAATTAGTACTGGAGA,0.0503
15,TCCCGTTAAGTGGGTGAGA,0.211
16,TCCCTAGCAGTGCATGAGA,0.422
17,TCCCTCGGAGTTTGCGAGA,0.311
18,TCCCGGGTAGTGTAGGAGA,0.284
19,TCCCGTGTAGTTCTGGAGA,0.189
20,TCCCGGTGAGTAGATGAGA,0.205
21,TCCCCCGAAGTGGGTGAGA,0.346
22,TCCCGGCAAGTTAAGGAGA,0.242
23,TCCCTTACAGTTGGTGAGA,0.36
24,TCCCGGAGAGTGATCGAGA,0.304
25,TCCCCAGTAGTGGTTGAGA,0.207
26,TCCCTCAAAGTCCATGAGA,0.364

row,Sequence,TetR repression strength
1,TCCCGCCGAGTGGGTGAGA,0.138
2,TCCCGGACAGTTGGTGAGA,0.421
3,TCCCATTGAGTGGCGGAGA,0.0422
4,TCCCGAACAGTTGCAGAGA,0.181
5,TCCCTTAAAGTCCCAGAGA,0.302
6,TCCCCGGGAGTAAGGGAGA,0.23
7,TCCCGCAGAGTGTGAGAGA,0.124
8,TCCCCCTAAGTGTCTGAGA,0.247
9,TCCCTGCGAGTGTATGAGA,0.14
10,TCCCTCAGAGTGAGGGAGA,0.359
11,TCCCTGCGAGTCGCGGAGA,0.207
12,TCCCTGGCAGTACTGGAGA,0.187
13,TCCCCAATAGTCCTCGAGA,0.409
14,TCCCCGCGAGTCCATGAGA,0.268
15,TCCCGTTGAGTACTTGAGA,0.162
16,TCCCCGTCAGTGGGTGAGA,0.276
17,TCCCTTTGAGTTTGCGAGA,0.293
18,TCCCAGCGAGTGTGTGAGA,0.102
19,TCCCAAGTAGTGGGGGAGA,0.133
20,TCCCTCCGAGTGGCTGAGA,0.17
21,TCCCGAGTAGTGGTTGAGA,0.303
22,TCCCTTGGAGTGCGTGAGA,0.0933
23,TCCCCGCTAGTGGTAGAGA,0.305
24,TCCCCTATAGTATGTGAGA,0.112
25,TCCCTGAGAGTGGCCGAGA,0.278
26,TCCCCCCGAGTGCGCGAGA,0.464
